# The other results are listed elsewhere or left out.
# Experiments:
# Experiment in all cases: glycan array binding signal (z-score within array); higher = stronger binding
# Details in all cases: glycan notation: IUPAC condensed, linker removed
# [1] = molecular target: GlcNAc(b1-4)GlcNAc(b1-4)GlcNAc(b1-4)GlcNAc(b1-4)GlcNAc
# Outline: (§1)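 The binding signal is a Z-score computed within each array. Data were drawn from 3228 arrays in the Consortium for Functional Glycomics database, restricted to those with a known protein sequence. Scores were averaged over arrays of the same protein sequence at different concentrations or buffers, and over linkers, and negative values can be taken as non-binding.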
# [2] = molecular target: GlcNAc(b1-4)GlcNAc(b1-4)GlcNAc(b1-4)GlcNAc(b1-4)GlcNAc(b1-4)GlcNAc
# Outline: as §1
# [3] = molecular target: GlcNAc(b1-4)[GlcNAc(b1-6)]GalNAc
# Outline: as §1
# [4] = molecular target: GlcNAc(b1-6)Gal(b1-4)GlcNAc
# Outline: as §1
# GlcNAc(b1-6)GalNAc = molecular target: GlcNAc(b1-6)GalNAc
# Outline: as §1
# [5] = molecular target: GlcNAc6S(b1-3)Gal(b1-4)GlcNAc
# Outline: as §1
# Kdn(a2-3)Gal(b1-3)GalNAc = molecular target: Kdn(a2-3)Gal(b1-3)GalNAc
# Outline: as §1
# Kdn(a2-3)Gal(b1-3)GlcNAc = molecular target: Kdn(a2-3)Gal(b1-3)GlcNAc
# Outline: as §1
# Kdn(a2-3)Gal(b1-4)Glc = molecular target: Kdn(a2-3)Gal(b1-4)Glc
# Outline: as §1
# Kdn(a2-3)Gal(b1-4)GlcNAc = molecular target: Kdn(a2-3)Gal(b1-4)GlcNAc
# Outline: as §1
# [6] = molecular target: Kdn(a2-3)Gal(b1-4)[Fuc(a1-3)]GlcNAc
# Outline: as §1
# Kdn(a2-6)Gal(b1-4)GlcNAc = molecular target: Kdn(a2-6)Gal(b1-4)GlcNAc
# Outline: as §1
# [7] = molecular target: Man(a1-2)Man(a1-2)Man(a1-3)Man
# Outline: as §1
# [8] = molecular target: Man(a1-2)Man(a1-2)Man(a1-6)[Man(a1-3)]Man
# Outline: as §1
# Man(a1-2)Man(a1-3)Man = molecular target: Man(a1-2)Man(a1-3)Man
# Outline: as §1
# [9] = molecular target: Man(a1-2)Man(a1-3)[Man(a1-2)Man(a1-6)]Man
# Outline: as §1
# [10] = molecular target: Man(a1-2)Man(a1-3)[Man(a1-2)Man(a1-6)]Man(a1-6)[Man(a1-2)Man(a1-2)Man(a1-3)]Man
# Outline: as §1
# [11] = molecular target: Man(a1-2)Man(a1-3)[Man(a1-2)Man(a1-6)]Man(a1-6)[Man(a1-2)Man(a1-2)Man(a1-3)]Man(b1-4)GlcNAc(b1-4)GlcNAc
# Outline: as §1
# [12] = molecular target: Man(a1-2)Man(a1-3)[Man(a1-6)]Man(a1-6)[Man(a1-2)Man(a1-3)]Man(b1-4)GlcNAc(b1-4)GlcNAc
# Outline: as §1
# [13] = molecular target: Man(a1-2)Man(a1-6)[Man(a1-3)]Man(a1-6)[Man(a1-2)Man(a1-2)Man(a1-3)]Man
# Outline: as §1
# [14] = molecular target: Man(a1-2)Man(a1-6)[Man(a1-3)]Man(a1-6)[Man(a1-2)Man(a1-2)Man(a1-3)]Man(b1-4)GlcNAc(b1-4)GlcNAc
# Outline: as §1
# Man(a1-3)[Man(a1-6)]Man = molecular target: Man(a1-3)[Man(a1-6)]Man
# Outline: as §1
# [15] = molecular target: Man(a1-3)[Man(a1-6)]Man(a1-6)[Man(a1-2)Man(a1-3)]Man(b1-4)GlcNAc(b1-4)GlcNAc
# Outline: as §1
# [16] = molecular target: Man(a1-3)[Man(a1-6)]Man(a1-6)[Man(a1-3)]Man
# Outline: as §1
# [17] = molecular target: Man(a1-3)[Man(a1-6)]Man(a1-6)[Man(a1-3)]Man(b1-4)GlcNAc(b1-4)GlcNAc
# Outline: as §1
# [18] = molecular target: Man(a1-3)[Man(a1-6)]Man(b1-4)GlcNAc(b1-4)GlcNAc
# Outline: as §1
# [19] = molecular target: Man(a1-3)[Man(a1-6)]Man(b1-4)GlcNAc(b1-4)[Fuc(a1-6)]GlcNAc
# Outline: as §1
# Man(a1-6)Man = molecular target: Man(a1-6)Man
# Outline: as §1
# Man(b1-4)GlcNAc = molecular target: Man(b1-4)GlcNAc
# Outline: as §1
# MurNAc(b1-4)GlcNAc = molecular target: MurNAc(b1-4)GlcNAc
# Outline: as §1
# Neu5Ac(a2-3)Gal = molecular target: Neu5Ac(a2-3)Gal
# Outline: as §1
# [20] = molecular target: Neu5Ac(a2-3)Gal(b1-3)GalNAc
# Outline: as §1
# [21] = molecular target: Neu5Ac(a2-3)Gal(b1-3)GalNAc(b1-3)Gal(a1-4)Gal(b1-4)Glc
# Outline: as §1
# [22] = molecular target: Neu5Ac(a2-3)Gal(b1-3)GalNAc(b1-4)Gal(b1-4)Glc
# Outline: as §1
# [23] = molecular target: Neu5Ac(a2-3)Gal(b1-3)GalNAc(b1-4)[Neu5Ac(a2-3)]Gal(b1-4)Glc
# Outline: as §1
# [24] = molecular target: Neu5Ac(a2-3)Gal(b1-3)GalNAc(b1-4)[Neu5Ac(a2-8)Neu5Ac(a2-3)]Gal(b1-4)Glc
# Outline: as §1
# [25] = molecular target: Neu5Ac(a2-3)Gal(b1-3)GalNAc6S
# Outline: as §1
# [26] = molecular target: Neu5Ac(a2-3)Gal(b1-3)GlcNAc
# Outline: as §1
# [27] = molecular target: Neu5Ac(a2-3)Gal(b1-3)GlcNAc(b1-2)Man
# Outline: as §1
# [28] = molecular target: Neu5Ac(a2-3)Gal(b1-3)GlcNAc(b1-2)Man(a1-3)[GlcNAc(b1-4)][Neu5Ac(a2-3)Gal(b1-3)GlcNAc(b1-2)Man(a1-6)]Man(b1-4)GlcNAc(b1-4)GlcNAc
# Outline: as §1
# [29] = molecular target: Neu5Ac(a2-3)Gal(b1-3)GlcNAc(b1-2)Man(a1-3)[Neu5Ac(a2-3)Gal(b1-3)GlcNAc(b1-2)Man(a1-6)]Man(b1-4)GlcNAc(b1-4)GlcNAc
# Outline: as §1
# [30] = molecular target: Neu5Ac(a2-3)Gal(b1-3)GlcNAc(b1-2)[Neu5Ac(a2-3)Gal(b1-3)GlcNAc(b1-4)]Man(a1-6)[Neu5Ac(a2-3)Gal(b1-3)GlcNAc(b1-2)Man(a1-3)]Man(b1-4)GlcNAc(b1-4)GlcNAc
# Outline: as §1
# [31] = molecular target: Neu5Ac(a2-3)Gal(b1-3)GlcNAc(b1-3)Gal(b1-3)GlcNAc
# Outline: as §1
# [32] = molecular target: Neu5Ac(a2-3)Gal(b1-3)GlcNAc(b1-3)Gal(b1-4)GlcNAc
# Outline: as §1
# [33] = molecular target: Neu5Ac(a2-3)Gal(b1-3)GlcNAc(b1-3)GalNAc
# Outline: as §1
binder,measurement,setting,value
"Cp ZmpB (Clostridium perfringens), Q0TR08 (protein) MNKRKIAAIILATMITNLSATTIDVLAQELNTKNNSKVEVSHDDESHQARVSKFDLYNSDKLDAYNQEFQVSRSNIKSINNNGGKYNSSTIDKAIDGNLETHWETGKPNDANFTNEVVVTFNEITNIDRIVYSARRDSARGKGFAKEFEIYASLKDEGDDFNLVSSGEYTESTRDLVEIKFNPTDFKRLKFKFKKADQNWASAAEFMFYKEDKLNEKFNGLFTDSSMNKVSEEFNTLEKLNAFENELKDHPIYDLYKEGLNNARAILTETSENPTKATLGQITYNLNDDYNNQYRMPYKNIKAIKNNGRHYAAQNIEKAIDNDVNTYWETGTLNSSSFNNEVEVEFNDLVTLDRIVYGSRQSDLKGFAEEVYIYASRTSKGDTYKLVATGAHEATKGLVEAKFEPTEFKRVKFKFKKSKQNSATLNELMFYKPDEVYSSIPKLFTDGTMSELSEEFNSLEKINAFKEKAKNHPLYNDFNETIELAESLISNPRKEDVLELEMRGDSISEAKKRKVWNFQDWQITGLSARAGDKITVYVDVAEGDPTPTLLYKQSLTQHGGATSFQLKPGKNEITIPEINYESNGIPKDVIQGGDLFFTNYKSDSQKRAPKVRIEGASKYPVFILGKSDENEVMKELEAYVEKIKAEPKTTPNIFAVSSNKSLEFVQATYALDWYKKNNKTPKYTAEQWDQYIADAMGFWGFDNSKDVNSDFNFRIMPMVKNLSGGAFMNAGNGVIGIRPGNQDAILAANKGWGVAHELGHNFDTGGRTIVEVTNNMMPLFFESKYKTKTRITDQNIWENNTYPKVGLDDYSNNELYNKADSTHLAQLAPLWQLYLYDNTFYGKFERQFRERDFGNKNREDIYKSWVVAASDAMELDLTEFFARHGIRVDDKVKEDLAKYPKPDKKIYYLNDLAMNYKGDGFTENAKVSVSTSGSNGNIKLSFSVDDENKDNILGYEIRRDGKYVGFTSNDSFVDTKSNLDEDGVYVVTPYDRKLNTLNPIEVNALQPTLSVNPVITLALGEEFNEEEYIVAKDIKGNSLSESVKVKSSNVNTSKVGEYEVLYSLEDSKGNEYTKTSKVNVVSRKEYMSDLTPKQSSNGWGTVRKDKSISGGVIGLTRDGDFVDYNKGLGLHSNAEYVYDLEGKDYDYFESYVGVDKAMSSRPASSVIFKVLVDGEEKFNSGVMRSTTPQKYVKVDVKNAKELKLIVNDAGDGDSSDHASFGDAKLATLSSKPIIKGENLAYSMDEKVDLMKGITATDIEDGNITSKVQIKSSDFVEGKSGIFTVVYSVTDSDGLTSECSRTIAVTDKETQLSDLNWKSATIGSGSVRKDRAVSGNQIRLLNEDNSVETFAKGIGTHSYSEIVYNSEGYDIFDTWVGIDRHVADKKVSSVKFKVYVDGELKAETDVMRIDTPKKRLVVDVRNSKEIKLVVDVADNGNNWDHADWADAKFRNLAEYDASELNKAIEEAKKLDLNNYTEESSEALKNAISKGEEALLSKDKETINSALEELNKEMNSLVKVDLNAVINIPDKYLLKSIQNQLNKTGDITLGDMYSLTTLTLSGVEDLTGLENAKNLETLNMDYNEVKDLRPLSKLKKLNTLNAQEQFIAAGELKPSNGKVIGDSKVYNREGKNVAKTIRVVDKNGNTILEQDAKDEFTINTKDLSSGLYGVHVLFEDEGFSGVMFYLFNV",glycan array binding signal (z-score),[1],-0.381
same,glycan array binding signal (z-score),[2],-0.483
same,glycan array binding signal (z-score),[3],-0.328
same,glycan array binding signal (z-score),[4],-0.356
same,glycan array binding signal (z-score),GlcNAc(b1-6)GalNAc,-0.177
same,glycan array binding signal (z-score),[5],-0.26
same,glycan array binding signal (z-score),Kdn(a2-3)Gal(b1-3)GalNAc,0.269
same,glycan array binding signal (z-score),Kdn(a2-3)Gal(b1-3)GlcNAc,0.081
same,glycan array binding signal (z-score),Kdn(a2-3)Gal(b1-4)Glc,-0.245
same,glycan array binding signal (z-score),Kdn(a2-3)Gal(b1-4)GlcNAc,-0.16
same,glycan array binding signal (z-score),[6],-0.322
same,glycan array binding signal (z-score),Kdn(a2-6)Gal(b1-4)GlcNAc,0.166
same,glycan array binding signal (z-score),[7],-0.029
same,glycan array binding signal (z-score),[8],0.001
same,glycan array binding signal (z-score),Man(a1-2)Man(a1-3)Man,-0.177
same,glycan array binding signal (z-score),[9],-0.245
same,glycan array binding signal (z-score),[10],-0.49
same,glycan array binding signal (z-score),[11],-0.276
same,glycan array binding signal (z-score),[12],-0.217
same,glycan array binding signal (z-score),[13],-0.405
same,glycan array binding signal (z-score),[14],-0.058
same,glycan array binding signal (z-score),Man(a1-3)[Man(a1-6)]Man,-0.117
same,glycan array binding signal (z-score),[15],-0.062
same,glycan array binding signal (z-score),[16],-0.053
same,glycan array binding signal (z-score),[17],-0.114
same,glycan array binding signal (z-score),[18],-0.046
same,glycan array binding signal (z-score),[19],-0.391
same,glycan array binding signal (z-score),Man(a1-6)Man,0.521
same,glycan array binding signal (z-score),Man(b1-4)GlcNAc,-0.23
same,glycan array binding signal (z-score),MurNAc(b1-4)GlcNAc,-0.274
same,glycan array binding signal (z-score),Neu5Ac(a2-3)Gal,-0.384
same,glycan array binding signal (z-score),[20],-0.016
same,glycan array binding signal (z-score),[21],0.032
same,glycan array binding signal (z-score),[22],0.164
same,glycan array binding signal (z-score),[23],1.03
same,glycan array binding signal (z-score),[24],-0.24
same,glycan array binding signal (z-score),[25],-0.457
same,glycan array binding signal (z-score),[26],0.112
same,glycan array binding signal (z-score),[27],-0.142
same,glycan array binding signal (z-score),[28],-0.1
same,glycan array binding signal (z-score),[29],0.896
same,glycan array binding signal (z-score),[30],0.01
same,glycan array binding signal (z-score),[31],-0.131
same,glycan array binding signal (z-score),[32],-0.218
same,glycan array binding signal (z-score),[33],-0.372
